From a collection of fitness landscapes (doi:10.1126/science.1257360)
This is one part of the list.

B1: PhoQ; a variant is named by its letters at X, in order, P23837 (parent)
chain: MKKLLRLFFPLSLRVRFLLATAAVVLVLSLAYGMVALIGYSVSFDKTTFRLLRGESNLFYTLAKWENNKLHVELPENIDKQSPTMTLIYDENGQLLWAQRDVPWLMKMIQPDWLKSNGFHEIEADVNDTSLLLSGDHSIQQQLQEVREDDDDAEMTHSVAVNVYPATSRMPKLTIVVVDTIPVELKSSYMVWSWFIYVLSANLLLVIPLLWVAAWWSLRPIEALAKEVRELEEHNRELLNPATTRELTSLVRNLNRLLKSERERYDKYRTTLTDLTHSLKTPLXXLQXXLRSLRSEKMSVSDAEPVMLEQISRISQQIGYYLHRASMRGGTLLSRELHPVAPLLDNLTSALNKVYQRKGVNISLDISPEISFVGEQNDFVEVMGNVLDNACKYCLEFVEISARQTDEHLYIVVEDDGPGIPLSKREVIFDRGQRVDTLRPGQGVGLAVAREITEQYEGKIVAGESMLGGARMEVIFGRQHSAPKDE

Variants of: B1
Experiment: enrichment ratio after two sorts for PhoP signalling (ratio (wild type AVST 3.29)); higher = more functional
Settings: with PhoP (E. coli)

| Variant | enrichment ratio |
| --- | --- |
| DQIY | ≤ 0.25 |
| YDIN | ≤ 0.25 |
| NNES | ≤ 0.25 |
| QPGW | ≤ 0.25 |
| SEDN | ≤ 0.25 |
| THWE | ≤ 0.25 |
| NLDY | ≤ 0.25 |
| YVNH | 0.333 |
| RCMF | ≤ 0.25 |
| SAWQ | 3.7 |
| LWGL | ≤ 0.25 |
| GESP | ≤ 0.25 |
| KHMF | ≤ 0.25 |
| PDVS | ≤ 0.25 |
| GTFH | ≤ 0.25 |
| FPLE | ≤ 0.25 |
| RACA | ≤ 0.25 |
| NKHW | ≤ 0.25 |
| LTYS | ≤ 0.25 |
| KMPQ | ≤ 0.25 |
| NSQR | ≤ 0.25 |
| VVTQ | ≤ 0.25 |
| SRET | ≤ 0.25 |
| LMCP | ≤ 0.25 |
| KKGD | ≤ 0.25 |
| NDMA | ≤ 0.25 |

| Variant | enrichment ratio |
| --- | --- |
| VNQN | ≤ 0.25 |
| GMGD | ≤ 0.25 |
| HGCV | 1.93 |
| LNTS | ≤ 0.25 |
| GHHN | ≤ 0.25 |
| FLRQ | ≤ 0.25 |
| CYLS | ≤ 0.25 |
| RMFS | ≤ 0.25 |
| LLLD | ≤ 0.25 |
| DILK | ≤ 0.25 |
| VKHR | ≤ 0.25 |
| QNQR | ≤ 0.25 |
| MKPQ | ≤ 0.25 |
| SAGC | 4.94 |
| NHTA | ≤ 0.25 |
| KCSR | ≤ 0.25 |
| IILK | ≤ 0.25 |
| DEWQ | ≤ 0.25 |
| RKRL | ≤ 0.25 |
| VDHI | ≤ 0.25 |
| KAEV | ≤ 0.25 |
| EHKE | ≤ 0.25 |
| FHLW | ≤ 0.25 |
| HMFV | ≤ 0.25 |
| PVIE | ≤ 0.25 |
| HQVR | ≤ 0.25 |

| Variant | enrichment ratio |
| --- | --- |
| SQNL | 1.02 |
| FTGD | ≤ 0.25 |
| DGMM | ≤ 0.25 |
| EHSY | ≤ 0.25 |
| SDCR | 2.09 |
| ALFQ | ≤ 0.25 |
| VCIQ | ≤ 0.25 |
| WMGT | ≤ 0.25 |
| RKEY | ≤ 0.25 |
| GSVI | 4.91 |
| MMTR | ≤ 0.25 |
| MGFQ | 5.15 |
| RLVM | ≤ 0.25 |
| IEPH | ≤ 0.25 |
| SAKH | ≤ 0.25 |
| HRLL | ≤ 0.25 |
| YWSQ | ≤ 0.25 |
| RIPD | ≤ 0.25 |
| EVRM | ≤ 0.25 |
| MCER | ≤ 0.25 |
| ANYG | ≤ 0.25 |
| ELNK | ≤ 0.25 |
| DWDM | ≤ 0.25 |
| NRPD | ≤ 0.25 |
| SLRD | ≤ 0.25 |
| CALS | ≤ 0.25 |

| Variant | enrichment ratio |
| --- | --- |
| VDIF | ≤ 0.25 |
| GAGI | ≤ 0.25 |
| VIHP | ≤ 0.25 |
| VEAD | ≤ 0.25 |
| RGFY | ≤ 0.25 |
| FEFF | ≤ 0.25 |
| FKIN | ≤ 0.25 |
| QIPG | ≤ 0.25 |
| HNLC | ≤ 0.25 |
| YTWC | ≤ 0.25 |
| DANI | ≤ 0.25 |
| RQGQ | ≤ 0.25 |
| IDRS | ≤ 0.25 |
| PKHC | ≤ 0.25 |
| ETGE | ≤ 0.25 |
| RFKN | ≤ 0.25 |
| RDWW | ≤ 0.25 |
| LNAD | ≤ 0.25 |
| RYNG | ≤ 0.25 |
| FLWH | ≤ 0.25 |
| NWHP | ≤ 0.25 |
| SPQD | ≤ 0.25 |
| IGYT | ≤ 0.25 |
| MGVL | 8.38 |
| THSC | 10.6 |
| ENSM | ≤ 0.25 |

| Variant | enrichment ratio |
| --- | --- |
| ERSV | ≤ 0.25 |
| SDYD | ≤ 0.25 |
| LKTG | ≤ 0.25 |
| TVLY | ≤ 0.25 |
| NQPL | ≤ 0.25 |
| SHLC | 3 |
| SVDG | ≤ 0.25 |
| HRWR | ≤ 0.25 |
| RFRS | ≤ 0.25 |
| TKSS | 7.82 |
| MHLW | ≤ 0.25 |
| DAEI | ≤ 0.25 |
| PCSE | ≤ 0.25 |
| TYKY | ≤ 0.25 |
| SSNR | ≤ 0.25 |
| MYCT | ≤ 0.25 |
| AQHV | ≤ 0.25 |
| LVIL | ≤ 0.25 |
| DFYV | ≤ 0.25 |
| ALSV | 8.37 |
| LKEI | ≤ 0.25 |
| IDLK | ≤ 0.25 |
| GCVV | ≤ 0.25 |
| RNCY | ≤ 0.25 |
| SHNI | 8.22 |
| EYPS | ≤ 0.25 |

| Variant | enrichment ratio |
| --- | --- |
| QFVL | ≤ 0.25 |
| FEFS | ≤ 0.25 |
| YTSI | ≤ 0.25 |
| LCAS | ≤ 0.25 |
| NGGQ | ≤ 0.25 |
| SMYY | ≤ 0.25 |
| RFGM | ≤ 0.25 |
| WQKR | ≤ 0.25 |
| WMKP | ≤ 0.25 |
| YCLT | 3.35 |
| HHQH | ≤ 0.25 |
| FAFR | ≤ 0.25 |
| KVHR | ≤ 0.25 |
| WISQ | ≤ 0.25 |
| WCLW | ≤ 0.25 |
| INKC | ≤ 0.25 |
| LVGW | ≤ 0.25 |
| DCGN | ≤ 0.25 |
| KLPH | ≤ 0.25 |
| WYYA | ≤ 0.25 |
| IKAL | ≤ 0.25 |
| SSCA | 9.17 |
| VCSH | ≤ 0.25 |
